From PubChem BioAssay AID1768 (National Center for Advancing Translational Sciences (NCATS), 2009)
Out of some 270,000 compounds screened, about 620 (0.23%) were called active. This list was built around the results that the source calls inconclusive (neither active nor inactive); the mix of calls is not that of the screen. Calls follow the shape of the dose curve; as a rule, active = well fitted inhibition curve with a large enough effect in the polarisation, with a control signal flat (not every such curve was filed as active); inconclusive = small, poorly fitted or top-dose-only effect, or effect the other way, or a change in a side signal; inactive = no such curve, though single readings can be large or run the other way; the % refers to the polarisation. Where the call is inconclusive, the potency comes from a doubtful curve fit. “Side channel” marks fits to a control or component signal instead of the main read-out.

molecular target: Menin (Homo sapiens) (UniProt O00255); test: qHTS Assay for Inhibitors Targeting the Menin-MLL Interaction in MLL Related Leukemias: Competition With Texas Red Labeled MLL-derived Mutant Peptide; settings: fluorescence polarization; series mostly up to 61.6 µM
Potency is read from the fitted curve at half-maximal effect; tags tell the direction and shape of the fitted curve or compound fluorescence and quenching.

Chain of UniProt O00255 (O00255 whole entry, looked up): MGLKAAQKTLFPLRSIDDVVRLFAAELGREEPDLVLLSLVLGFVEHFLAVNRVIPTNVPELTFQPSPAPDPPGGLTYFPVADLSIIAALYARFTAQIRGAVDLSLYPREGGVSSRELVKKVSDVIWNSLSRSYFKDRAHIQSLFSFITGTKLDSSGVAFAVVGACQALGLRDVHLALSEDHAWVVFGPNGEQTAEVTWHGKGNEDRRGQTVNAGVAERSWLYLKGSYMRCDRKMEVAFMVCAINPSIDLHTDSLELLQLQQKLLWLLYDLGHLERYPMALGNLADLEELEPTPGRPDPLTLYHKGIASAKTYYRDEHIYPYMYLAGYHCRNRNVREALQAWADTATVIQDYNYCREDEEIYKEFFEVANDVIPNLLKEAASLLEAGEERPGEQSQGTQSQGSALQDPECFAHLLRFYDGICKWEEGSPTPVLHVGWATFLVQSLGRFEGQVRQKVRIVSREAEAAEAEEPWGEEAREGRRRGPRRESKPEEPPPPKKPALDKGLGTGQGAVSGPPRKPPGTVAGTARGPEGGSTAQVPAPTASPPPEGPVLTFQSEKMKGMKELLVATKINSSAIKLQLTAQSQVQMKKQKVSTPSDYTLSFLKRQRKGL

How did the Potency turn out when `N#CC(C#N)=NNc1ccc(S(=O)(=O)N2CCCCC2)cc1` was run?
The Potency was inconclusive: 8.91 µM [quencher, side channel, partial curve].

With `O=C(N/N=C/c1cc([N+](=O)[O-])ccc1O)c1ccc2c(c1)OCCO2` as the compound, how does the Potency read?
The Potency was inconclusive: 14.1 µM [quencher, side channel, partial curve].

Which Potency does the source give for `O=C(/C(=N\Nc1ccc(Br)cc1)Sc1nnnn1-c1ccccc1)c1ccccc1` here?
The Potency was inconclusive: 15.8 µM [quencher, side channel, partial curve].

`O=C(CCN1C(=O)/C(=C/c2cccs2)SC1=S)NNC(=O)c1cccc(O)c1` was tested. Which Potency did it give?
Its Potency is inconclusive: 20 µM [fluorescent, side channel, partial curve].

For `O=C(COC(=O)c1ccccc1C(=O)N1CCN(c2ccc(F)cc2)CC1)NCc1ccccc1`, which Potency is on record?
The Potency was inconclusive: 44.7 µM [fluorescent, side channel, partial curve].

For `C/C(=N\Nc1nc(N2CCCCCC2)nc(N2CCCCCC2)n1)c1ccccc1`, which Potency is on record?
The Potency was inconclusive: 12.6 µM [fluorescent, side channel, partial curve].

How did the Potency turn out when `COc1ccc(CN2CCN(Cc3ccc(Br)cc3)CC2)c(OC)c1OC` was run?
Its Potency is inconclusive: 14.1 µM [inhibitor, partial curve].

Which Potency does the source give for `CCOC(=O)c1ccc(-n2c(O)c(/C=N/NC(=O)C3COc4ccccc4O3)c3ccccc3c2=O)cc1` (stereo not given) here?
Its Potency is inconclusive: 31.6 µM [quencher, side channel, partial curve].

`c1ccc(-c2nnc(-c3ccccc3)c(-c3c[nH]c4ccccc34)n2)cc1` was tested. Which Potency did it give?
The Potency was inconclusive: 39.8 µM [inhibitor, single point].

`CC1(C)CC(=O)C(/C=N/n2c(C(F)(F)F)nc3ccccc3c2=O)=C(O)C1` was tested. Which Potency did it give?
Its Potency is inconclusive: 31.6 µM [quencher, side channel, single point].

With `CSc1nc(O)c(/C=C2\C=Nc3ccccc32)[nH]1` as the compound, how does the Potency read?
The Potency was inconclusive: 14.1 µM [quencher, side channel, single point].

`Cc1ccc(NC(=O)c2sc(Cl)nc2-c2ccccc2)cc1` was tested. Which Potency did it give?
Its Potency is “inactive”.

For `COC(=O)c1ccc(COc2ccc3ccc(=O)oc3c2)o1`, which Potency is on record?
Its Potency is “inactive”.

`COc1n[nH]c(C(=O)Nc2nc3ccccc3s2)c1[N+](=O)[O-]` was tested. Which Potency did it give?
The Potency was inconclusive: 31.6 µM [quencher, side channel, single point].

With `COc1ccccc1-c1nnc(NC(=O)c2ccc(S(=O)(=O)N(C)Cc3ccccc3)cc2)o1` as the compound, how does the Potency read?
Its Potency is inconclusive: 25.1 µM [quencher, side channel, partial curve].

`O=C(NC(=S)Nc1ccccc1)c1cc([N+](=O)[O-])ccc1N1CCOCC1` was tested. Which Potency did it give?
The Potency was inconclusive: 20 µM [quencher, side channel, partial curve].

For `COC(=O)Cn1c(=NC(=O)c2ccc(OC)c(OC)c2)sc2cc(OC)ccc21`, which Potency is on record?
Its Potency is “inactive”.

For `COc1cc(Nc2ccc(C(=O)O)cc2[N+](=O)[O-])cc(OC)c1`, which Potency is on record?
The Potency was inconclusive: 17.8 µM [quencher, side channel, single point].

For `Clc1cccc(Cl)c1CSc1nnc(CN2CCOCC2)n1-c1ccccc1`, which Potency is on record?
The Potency was inconclusive: 10 µM [fluorescent, side channel, partial curve].

With `O=C1C=C(c2cccs2)C[C@H](c2ccccc2)[C@H]1n1nnc([N+](=O)[O-])n1` as the compound, how does the Potency read?
Its Potency is inconclusive: 25.1 µM [quencher, side channel, partial curve].

`OC(c1cc(-c2ccc(Cl)cc2)nc2ccccc12)C1CCCCN1` (stereo not given) was tested. Which Potency did it give?
Its Potency is inconclusive: 2.82 µM [fluorescent, side channel, full curve].

How did the Potency turn out when `O=c1c2ccccc2c(C=Nc2ccc(S(=O)(=O)Nc3ncccn3)cc2)c(O)n1-c1cccc(Cl)c1` was run?
Its Potency is inconclusive: 39.8 µM [inhibitor, single point].

With `CC(=O)c1cccc(N=Nc2c(-c3ccccc3)[nH]n(-c3ccccc3)c2=O)c1` as the compound, how does the Potency read?
The Potency was inconclusive: 11.2 µM [quencher, side channel, partial curve].

With `Cc1ccc(C2(C(F)(F)F)N=C3Sc4cc(C)ccc4N3C(=O)N2)cc1` (stereo not given) as the compound, how does the Potency read?
The Potency was inconclusive: 20 µM [inhibitor, single point].

How did the Potency turn out when `CC1N(C)c2cc(NC(=O)c3ccco3)ccc2C1(C)C` (stereo not given) was run?
Its Potency is inconclusive: 20 µM [fluorescent, side channel, partial curve].

`CCOC(=O)C1C2C=CC3(CN(Cc4cccs4)C(=O)C13)O2` (stereo not given) was tested. Which Potency did it give?
The Potency was inconclusive: 39.8 µM [inhibitor, single point].

For `C/C(=C\C(=O)c1ccc(Br)cc1)NNC(=O)c1ccc(O)cc1`, which Potency is on record?
Its Potency is inconclusive: 11.2 µM [quencher, side channel, partial curve, poor fit].

Which Potency does the source give for `CCOC(=O)C1CCN(S(=O)(=O)c2ccccc2)CC1` here?
The Potency was inconclusive: 20 µM [inhibitor, partial curve].

Which Potency does the source give for `S=C(NC1CCCCC1)N1CCN(C2CCCCC2)CC1` here?
The Potency was inconclusive: 10 µM [inhibitor, partial curve].

`O=c1c2ccccc2nnn1Cc1ccc(Br)cc1` was tested. Which Potency did it give?
The Potency was inconclusive: 39.8 µM [inhibitor, single point].

Which Potency does the source give for `Cc1ccc(NC(C)C(=O)N/N=C/c2ccc([N+](=O)[O-])s2)cc1` (stereo not given) here?
The Potency was inconclusive: 20 µM [quencher, side channel, partial curve].

For `CCCCCn1c(CCC(=O)Oc2ccccc2OC)nc2c1c(=O)[nH]c(=O)n2CCCC`, which Potency is on record?
The Potency was inconclusive: 8.91 µM [fluorescent, side channel, partial curve].

With `CN1C[C@@H]2C[C@@H](c3ccc(C#CC(C)(C)O)s3)N3CCC[C@@]23C1=O` as the compound, how does the Potency read?
Its Potency is inconclusive: 39.8 µM [inhibitor, single point].

Which Potency does the source give for `CCOC(=O)c1cc2sccc2n1CC(=O)c1ccc2c(c1)OCCO2` here?
The Potency was inconclusive: 22.4 µM [quencher, side channel, single point].

How did the Potency turn out when `Cc1cccc(OCC(=O)Nc2ccccc2-c2ccccc2)c1` was run?
The Potency was inconclusive: 12.6 µM [fluorescent, side channel, partial curve].
